Test results taken from PubChem BioAssay AID624171 (National Center for Advancing Translational Sciences (NCATS), 2012).
Hit rate of the full screen: of about 410,000 compounds, about 1,200 (0.29%) were called active. The inconclusive results got no clear call from the source; some entries with a clear call stand among them for comparison. Calls follow the shape of the dose curve; as a rule, active = well fitted activation curve with a large enough effect; inconclusive = small, poorly fitted or top-dose-only effect; inactive = flat fitted curve, though single readings scatter. Potencies beside an inconclusive call are fits to weak or partial responses and may not hold up.

Assay: qHTS of Nrf2 Activators; also: nearly all actives have a fitted effect of over 65% in size; as to activation: % of control where 0% means no effect
Details: AREc32 ARE-luciferase reporter (MCF7-derived line), luminescence, 24 h; activation: at 46.1 µM (top of the series)
In short: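 ARE activation measured as luciferase luminescence (Steady-Glo, 30 min RT) in AREc32_Fluc cells after 24 hr compound exposure at 37 deg C, 5% CO2; cells seeded overnight at 1000/well in OPTI-MEM, 5% FBS.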
Potency is read from the fitted curve at half-maximal effect; tags tell the direction and shape of the fitted curve.

Potency, active:
CCOc1cc(NC(=O)CCl)c(OCC)cc1NC(C)=O 14.1 µM, COc1ccc(OC)c(N(CCN2C(=O)c3ccccc3C2=O)C(=O)CCl)c1 12.6 µM, Cc1ccc2oc(C(Cl)(Cl)Cl)cc(=O)c2c1 22.4 µM

Potency, inactive:
O=C1CC(=O)Nc2cc(S(=O)(=O)Nc3ccc(F)cc3Cl)ccc2N1

Potency, inconclusive:
Cc1ccc(S(=O)(=O)/C(=C/Cl)NC(=O)c2ccccc2)cc1 3.55 µM [activator, single point], COC(=O)C1=C(C)NC(=O)/C1=C\c1ccco1 2.51 µM [activator, full curve, poor fit], O=C(NN1C(=O)/C(=C/C=C/c2ccccc2)SC1=S)c1ccncc1 31.6 µM [activator, single point], CCOC(=O)NC1(NCC(C)C)Oc2ccccc2O1 31.6 µM [activator, single point], Cc1nc(C(=O)O)cc([N+](=O)[O-])c1C 12.6 µM [activator, partial curve, poor fit], COc1ccccc1OCc1nc2ccccc2n1C 15.8 µM [activator, single point], O=[N+]([O-])c1ccccc1/C=C/C=N/n1c(-c2ccccc2)n[nH]c1=S 22.4 µM [activator, single point], c1ccc(-c2cnc(-c3cccnc3)o2)cc1 15.8 µM [activator, single point], Cc1ccc(S(=O)(=O)/N=C(\CCl)N2CCOCC2)cc1 17.8 µM [activator, single point], O=C1c2sccc2-c2cccc3cccc1c23 31.6 µM [activator, partial curve, poor fit], CN1CCN(Cc2nc3ccccc3c(=O)n2Cc2nc(-c3ccc4ccccc4c3)cs2)CC1 35.5 µM [activator, partial curve, poor fit], CCNc1cc2c(cc1O)CCC1C2CCC2(C)C(O)CCC12 (stereo not drawn) 11.2 µM [activator, partial curve, poor fit], C/C(=N\NC(=O)COc1ccccc1-c1ccccc1)c1ccccn1 15.8 µM [activator, single point], O=C(CSc1nc2ccccc2[nH]1)N/N=C/c1ccco1 17.8 µM [activator, single point], COc1ccc(-c2cc(=O)c3ccccc3s2)cc1 1.41 µM [activator, full curve, poor fit], COc1cccc(/C=C2\SC(=S)N(CC3CCCO3)C2=O)c1 (stereo not drawn) 35.5 µM [activator, partial curve, poor fit], Cc1cc2oc(=O)cc(C)c2cc1NC(=O)CCl 15.8 µM [activator, partial curve, poor fit], CCN(CC)c1ccc2c(Cl)cc(=O)oc2c1 11.2 µM [activator, partial curve, poor fit], COc1ccccc1NC(=O)C(=O)Nc1ccccn1 2.82 µM [activator, full curve, poor fit], COc1ccc(/C=C/C(=O)c2cc3cccc(OC)c3oc2=O)cc1 28.2 µM [activator, single point], COc1cc(NC(=O)c2cc(Cl)nnc2Cl)cc(OC)c1OC 11.2 µM [activator, partial curve, poor fit], O=C(CCc1nnc2ccc(NCc3ccco3)nn12)Nc1ccc(F)cc1 20 µM [activator, single point], Cc1cc(C(=O)CCl)c(C)n1CCc1ccccc1 12.6 µM [activator, single point], CCCCCCC(=O)N(O)C1CC(=O)N(c2ccc(C)cc2)C1=O (stereo not drawn) 22.4 µM [activator, single point], O=C(N/N=C/c1cccs1)c1cccc2cc[nH]c12 14.1 µM [activator, single point], Cc1ccc2c(c1)/C(=C/c1ccccc1)C(=O)N2 14.1 µM [activator, single point], COC(=O)c1scc(C#N)c1N/N=C(\C#N)S(=O)(=O)c1ccc(Cl)cc1 12.6 µM [activator, single point], CSc1ccc(C2C(C#N)=C(N)Oc3c2ccc(=O)c2c(C)oc(C)c32)cc1 (stereo not drawn) 31.6 µM [activator, single point]

activation, inactive:
O=c1c(Cl)c2oc3ccccc3nc-2c2ccccc12 5.79%, COc1ccc(C(CNC(=O)c2ccccc2C)N2CCCC2)cc1 (stereo not drawn) 0.255%, CN(CC(=O)Nc1ccc(F)c(F)c1F)C(=O)c1ccc(-n2cncn2)cc1 0.128%, COc1ccc(Oc2nnc(-c3ccc(C)cc3)c3ccccc23)cc1 -0.16%, CC1CCN(C(=O)CSc2nnc(NC(=O)Nc3ccccc3)s2)CC1 3.85%, Cc1ccc(Cc2nc3ccccc3nc2SCC(=O)NCc2ccccc2Cl)cc1 -0.782%, COc1ccc(CN2C(=O)CS/C2=N/N=C/c2ccccc2)cc1 2.12%, Cc1cccc(OCc2nc(C#N)c(N3CCCC3)o2)c1 -1.09%, O=C(NNc1c([N+](=O)[O-])cc(C(F)(F)F)cc1[N+](=O)[O-])c1ccco1 5.06%, CC(=O)N1CCc2cc(S(=O)(=O)NC(Cc3ccccc3)C(=O)NCc3ccccc3Cl)ccc21 (stereo not drawn) 0.96%, O=C(COc1ccc(S(=O)(=O)NC2CCCC2)cc1)N1CCCCC1 -1.01%, CC(NC(=O)CSc1nc(-c2ccccc2F)nc2cc(=O)[nH]n12)c1nc2ccccc2n1C (stereo not drawn) 10%, Cc1ccc(-n2cnc3c(sc4nc(N5CCOCC5)c5c(c43)CCCC5)c2=O)cc1 0.216%, Cc1cc(N2CCC(C)CC2)nc2ccc(NC(=O)CCC(=O)N3CCN(c4ccccc4F)CC3)cc12 0.843%, O=C(NC(=S)N1CCOCC1)c1cn(-c2ccccc2)nc1-c1ccc(F)cc1 12.7%, Cc1ccc(NC(=O)CCC(=O)c2cccs2)c(O)c1 4.65%
